# About 14,000 (4.5%) of roughly 310,000 compounds showed an effect of 50% or more. The effect is printed as a negative number. The list shows a part of the results.
# Target: human ether-à-go-go-related gene (hERG) potassium channel (human, UniProt Q12809)
# Test: primary screen, population patch clamp on CHO cells stably expressing hERG
# 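Further: peak tail current of the secondary pulse compared with the same well before compound.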
# Chain of human ether-à-go-go-related gene (hERG) potassium channel (Q12809 whole entry, looked up): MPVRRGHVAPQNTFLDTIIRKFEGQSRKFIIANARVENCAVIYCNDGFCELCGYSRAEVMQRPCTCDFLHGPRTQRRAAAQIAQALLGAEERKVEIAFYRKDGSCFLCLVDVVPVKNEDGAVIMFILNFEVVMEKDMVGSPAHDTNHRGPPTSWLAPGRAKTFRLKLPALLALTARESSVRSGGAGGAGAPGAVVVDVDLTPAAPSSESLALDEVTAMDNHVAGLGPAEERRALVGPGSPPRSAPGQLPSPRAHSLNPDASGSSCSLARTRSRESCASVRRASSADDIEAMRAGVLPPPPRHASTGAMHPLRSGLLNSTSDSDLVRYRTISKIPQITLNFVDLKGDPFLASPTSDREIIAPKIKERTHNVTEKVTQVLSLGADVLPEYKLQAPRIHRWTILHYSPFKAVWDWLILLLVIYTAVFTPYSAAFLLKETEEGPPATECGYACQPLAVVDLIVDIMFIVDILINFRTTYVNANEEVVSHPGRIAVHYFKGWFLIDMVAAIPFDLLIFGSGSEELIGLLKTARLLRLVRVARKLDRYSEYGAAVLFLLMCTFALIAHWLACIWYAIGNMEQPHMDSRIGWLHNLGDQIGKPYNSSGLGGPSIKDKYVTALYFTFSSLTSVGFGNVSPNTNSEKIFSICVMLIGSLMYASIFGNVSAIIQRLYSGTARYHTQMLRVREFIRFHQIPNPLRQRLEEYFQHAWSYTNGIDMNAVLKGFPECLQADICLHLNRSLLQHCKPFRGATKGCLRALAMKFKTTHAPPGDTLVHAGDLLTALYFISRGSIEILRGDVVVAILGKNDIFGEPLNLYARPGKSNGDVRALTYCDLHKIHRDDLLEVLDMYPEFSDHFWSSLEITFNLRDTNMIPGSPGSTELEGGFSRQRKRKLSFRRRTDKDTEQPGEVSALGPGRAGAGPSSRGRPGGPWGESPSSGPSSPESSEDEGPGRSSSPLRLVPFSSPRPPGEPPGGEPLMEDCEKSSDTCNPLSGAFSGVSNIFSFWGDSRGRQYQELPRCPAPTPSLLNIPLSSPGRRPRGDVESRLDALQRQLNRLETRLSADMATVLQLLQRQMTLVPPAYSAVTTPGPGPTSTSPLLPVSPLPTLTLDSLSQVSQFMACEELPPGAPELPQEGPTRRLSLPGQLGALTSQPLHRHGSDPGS
row,Structure (SMILES),"hERG current change (%, negative = inhibition) at 10uM"
1,OCc1ccnc2c(O)cccc12,10.2%
2,COC(=O)c1[nH]c2ccc(Br)cc2c1NC(=O)CN1CCCc2ccccc21,-4.4%
3,CSCC(=O)N1CCC(CCC(=O)NC2CC2)CC1,21.5%
4,CCOC(=O)c1c(-c2ccccc2)csc1NC(=O)COc1ccc2c(C)cc(=O)oc2c1,15.7%
5,O=C(Nc1ccccc1)N1CCCC1,-0.806%
6,COC(=O)CCC(=O)N(CCN(Cc1ccccc1)C(=O)CCC(=O)OC)Cc1ccccc1,-13.5%
7,CCOC(=O)C1=C(N)n2c(s/c(=C\c3cccnc3)c2=O)=C(C(=O)OC)C1c1cccnc1 (stereo not shown),-10.3%
8,CC(=O)c1cccc(NC(=S)NC(=O)c2ccccc2Br)c1,10.9%
9,Cc1cc(NC(=O)COC(=O)C(C)Oc2ccc(Cl)cc2Cl)no1 (stereo not shown),12.2%
10,CCS(=O)(=O)c1ccc2oc(Nc3ccc(OC)c(OC)c3)nc2c1,8.05%
11,O=C(NCc1ccccn1)c1c(Cl)cccc1Cl,2.78%
12,COc1ccc(OC)c(-c2cc(C(=O)N3CCc4ccccc4C3)no2)c1,11.3%
13,CC(NCc1ccc(S(N)(=O)=O)cc1)C(=O)N1CCc2ccccc21 (stereo not shown),5.05%
14,Cc1ccc2[nH]c3c(N4CCOCC4)ncnc3c2c1,-0.757%
15,Cc1cc(C(=O)NCc2ccc(F)cc2)n(-c2ccccc2)n1,-3.69%
16,C/C(=N/O)c1cc(C(C)(C)C)c(O)c(C(C)(C)C)c1,14.6%
17,COc1ccc(S(=O)(=O)c2c(O)c3ccc(C(=O)Nc4ccccc4F)cc3[nH]c2=O)cc1,-0.579%
18,OCCN1CCN(C(=S)NCCc2ccccc2)CC1,16.3%
19,O=C1C=C(NCCN2CCOCC2)CC(c2ccccc2)C1 (stereo not shown),-6.99%
20,Cc1ccc(C(=O)Nc2nnc(CC(=O)N/N=C/c3ccc(O)c(O)c3)s2)cc1,26%
21,CC(=O)N1CN(C2CCS(=O)(=O)C2)Cc2c1sc1c2CCCC1 (stereo not shown),6.57%
22,O=C1C=C(c2ccc(Cl)cc2)OC2(CCCC2)O1,-26.2%
23,COC(=O)C1=C(c2cccc(OC)c2OC)C[C@@H]2CC[C@H]1N2C(=O)NCC1CC1,0.266%

row,Structure (SMILES),"hERG current change (%, negative = inhibition) at 10uM"
1,CCCCCCOc1ccc(N2C(=O)CC(N3CCN(CCN=CC4=C(O)CC(C)(C)CC4=O)CC3)C2=O)cc1 (stereo not shown),-33.1%
2,COc1ccc(Nc2nc3ccccc3c(=O)[nH]2)cc1,-0.539%
3,COc1ccc2c(c1)CC/C2=N\OC(=O)c1cccc(C)c1,5.29%
4,CC(=O)c1c(C)[nH]c(C(=O)N2CCN(c3cc(Cl)ccc3C)CC2)c1C,19%
5,O=C(COC(=O)CNC(=O)c1ccc(Cl)cc1Cl)NC(=O)NCc1ccccc1,13.8%
6,COc1ccc(OC)c(S(=O)(=O)N2CCC(C(=O)Nc3cccc(C)c3C)CC2)c1,10%
7,Cc1cccc(-c2n[nH]c(S(C)(=O)=O)c2C#N)c1,-0.0424%
8,C/C(=N\Nc1nc2ccccc2nc1C)c1ccccc1O,3.61%
9,CSc1nc(NCc2ccco2)c2ccccc2n1,2.5%
10,CCC1CCCCN1CC(=O)c1c(C)[nH]c2ccc(OC)cc12 (stereo not shown),-20.6%
11,C=CCNC(=O)c1cc2cccc(OC)c2oc1=O,34.2%
12,CCOC(=O)c1sc(Nc2ccc(F)cc2)nc1C,14.7%
13,CCOC(=O)CC(=O)CSc1nc2c(sc(=S)n2-c2ccc(C)c(C)c2)c(=O)[nH]1,-10.7%
14,Cc1c(C(=O)N(C)C(C)c2ccncn2)oc2c(F)cccc12 (stereo not shown),-0.356%
15,O=C(Nc1ccc(S(=O)(=O)Nc2nccs2)cc1)C1=NN(c2ccccc2)C(=O)CC1,17.8%
16,Cc1ccc(Cl)cc1N(C)C(=O)Cn1ncc2c([nH]c3ccccc32)c1=O,18.4%
17,Cc1ccc2nc(Cl)c(C3CC(c4cccs4)=NN3C(=O)CCC(=O)O)cc2c1 (stereo not shown),20.9%
18,COc1ccccc1N1CCN(/N=C/C(Cl)=C/c2ccccc2)CC1,25.5%
19,Cc1ccc(NC(=S)c2nc3ccccc3s2)cc1,12.1%
20,COC(CN(C)C(C(=O)NC1CCCCC1)c1ccccc1)OC (stereo not shown),-7.49%
21,CCCCN1CCc2[nH]c(=S)[nH]c(=O)c2C1,2.25%
22,NNC(=O)C1CCN(S(=O)(=O)c2ccc(Cl)cc2)CC1,12.9%
23,COc1ccc(/C=C/C(=O)c2oc3ccc(F)cc3c2C)cc1,6.1%

row,Structure (SMILES),"hERG current change (%, negative = inhibition) at 10uM"
1,O=C(CCc1nnc2ccc(N3CCCC3)nn12)Nc1cc(F)ccc1F,-50.4%
2,Cc1nc(Cl)sc1C(=O)Nc1cccc(Cl)c1,12.6%
3,COc1ccc(C2SCCN2S(=O)(=O)c2ccccc2)cc1 (stereo not shown),-4.42%
4,CCOC(=O)C1CN(C(C)(C)C)C(=O)C1=O (stereo not shown),16%
5,COc1ccc(O)c(-c2[nH]ncc2C(=O)c2ccccc2)c1,12.8%
6,O=C(CN1C(=O)COc2ccccc21)NCCCN1CCN(Cc2ccccc2)CC1,-11.7%
7,CC(=O)N(Cc1cccs1)Cc1cc2ccc(C)c(C)c2nc1Cl,19.5%
8,Cc1cn(C2OC(COC(=O)c3ccccc3)C(O)C2Cl)c(=O)[nH]c1=O (stereo not shown),-0.723%
9,CC1(C)CC(=O)C2=C(C1)NC(=O)CC2c1cccc(F)c1 (stereo not shown),-4%
10,O=C(Nc1cc(Cl)ccc1Oc1ccccc1)c1cnccn1,15.5%
11,C[C@]12C=CC(=O)C=C1CC[C@@H]1C2[C@@H](O)C[C@@]2(C)C1CC[C@]2(O)C(=O)COC(=O)CCC(=O)O (stereo partly shown),2.52%
12,Nc1nc(CSCCO)nc(Nc2ccc(F)cc2)n1,16.1%
13,CCN1C(=O)c2cccc3c(S(=O)(=O)N4CCC(C)CC4)ccc1c23,-16.8%
14,CC(=O)Nc1ccc(NC(=O)CSc2nnc(C)c(=O)n2N)cc1,0.297%
15,O=C1C2ON(c3ccccc3)C(c3ccccc3F)C2C(=O)N1c1ccccc1 (stereo not shown),-5.85%
16,CCc1nc(SCc2cccnc2)c(C#N)cc1C,-20%
17,Cc1onc(-c2c(F)cccc2Cl)c1C(=O)N1CCc2ccccc21,-23.1%
18,Cc1ccc(NS(=O)(=O)c2ccc3c(c2)NC(=O)CCS3)cc1F,7.64%
19,CC(Cc1cccnc1)NC(=O)c1cc(COc2c(F)cccc2F)on1 (stereo not shown),-0.167%
20,CS(=O)(=O)N1CCc2cc(C(=O)Nc3ccccc3Cl)ccc21,-6.05%
21,S=C(c1ccc(-c2ccccc2)cc1)N1CCOCC1,6.09%
22,Cc1ccccc1SCC(=O)Nc1ccc(N2CCOCC2)cc1,1.82%
23,CCC(=O)Oc1ccc(/C(CC)=C(\CC)c2ccc(OC(=O)CC)cc2)cc1,12.1%

row,Structure (SMILES),"hERG current change (%, negative = inhibition) at 10uM"
1,CCN1CCN(c2nc3c(c(=O)[nH]c(=O)n3C)n2CCCSc2ncccn2)CC1,-5.43%
2,COc1cc(NC(=O)c2ccc(Br)cc2)ccc1NC(=O)c1cc2ccccc2o1,5.79%
3,Br.C=CCN1C2=NCCCN2c2ccccc21,-13.9%
4,Cl.O=C(Cn1c(NCCCl)nc2ccccc21)c1ccc(Br)cc1,-31.6%
5,NC(=S)N/N=C/c1ccc([N+](=O)[O-])cc1,-8.06%
6,Cc1cnc(C(=O)OCC(=O)N(Cc2ccccc2)C(C)C)cn1,20.4%
7,Cc1cccc(NC(=O)CSC2=NN3CCCC(=O)N=C3S2)c1C,-14%
8,Cl.NCC1(c2ccc3c(c2)OCCO3)CCCC1,-10.4%
9,COc1cc(NC(=O)CSc2nnc3ccc(-c4cccnc4)nn23)cc(OC)c1,-9.05%
10,COc1ccc(CN2C(=O)c3cccc4cccc2c34)cc1F,17.7%
11,CCCC(=O)Nc1nnc(SCC)s1,15.9%
12,COc1cc(C2C(C(C)=O)=C(O)C(=O)N2Cc2ccccc2)ccc1O (stereo not shown),16.2%
13,CC(Nc1cc(N2CCNCC2)ccc1[N+](=O)[O-])c1ccccc1 (stereo not shown),-7.49%
14,N#CCCN(C(=O)COC(=O)CNC(=O)C12CC3CC(CC(C3)C1)C2)c1ccccc1,-23.5%
15,O=C(Nc1cc(Cl)ccc1-n1cncn1)c1ccc([N+](=O)[O-])o1,-22.4%
16,COC(=O)C1C(=O)C2=C(CC1C)NC(=O)CC2c1ccc(F)cc1 (stereo not shown),18.6%
17,COc1cc2nc(-c3ccc(Br)o3)oc(=O)c2cc1OC,13.3%
18,COc1ccc([N+](=O)[O-])cc1NC(=O)C1CCCCC1C(=O)O (stereo not shown),3.39%
19,CC(OC(=O)/C(C#N)=C/c1ccc(N(C)C)cc1)C(=O)N(C)Cc1ccccc1 (stereo not shown),-0.266%
20,Cc1cc(C(=O)Nc2ccc3c(c2)OCCO3)c2ccccc2n1,18.4%
21,COc1ccc(N2CC(C(=O)NCCc3ccc(Cl)cc3)CC2=O)c(OC)c1 (stereo not shown),-36.9%
22,CN(C1CCCCC1)S(=O)(=O)c1cccc(C(=O)OCC(=O)NC2CCCc3ccccc32)c1 (stereo not shown),-13.9%

# From paper PMC4336329 (PLoS ONE, 2015)
